# Measured values as given in the supplement of paper PMC8728848.
# This is one part of the list.
# Assays:
# Assay in all cases: glycan array binding signal (z-score within array); higher = stronger binding
# Details in all cases: glycan notation: IUPAC condensed, linker removed
# Gal(a1-3)Gal = molecular target: Gal(a1-3)Gal
# How it was run: (§1)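 Columns mapping to the same glycan were averaged after glycan names were converted to IUPAC-condensed notation. The data come from 3228 arrays in the Consortium for Functional Glycomics database, limited to those with an available protein sequence. Binding is reported as a within-array Z-score averaged across arrays of one protein sequence and across linkers.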
# Gal(a1-3)Gal(b1-3)GlcNAc = molecular target: Gal(a1-3)Gal(b1-3)GlcNAc
# How it was run: as §1
# Gal(a1-3)Gal(b1-4)Glc = molecular target: Gal(a1-3)Gal(b1-4)Glc
# How it was run: as §1
# Gal(a1-3)Gal(b1-4)GlcNAc = molecular target: Gal(a1-3)Gal(b1-4)GlcNAc
# How it was run: as §1
# [1] = molecular target: Gal(a1-3)Gal(b1-4)[Fuc(a1-3)]GlcNAc
# How it was run: as §1
# [2] = molecular target: Gal(a1-3)Gal(b1-4)[Fuc(a1-3)]GlcNAc(b1-2)Man(a1-3)[Gal(a1-3)Gal(b1-4)[Fuc(a1-3)]GlcNAc(b1-2)Man(a1-6)]Man(b1-4)GlcNAc(b1-4)GlcNAc
# How it was run: as §1
# Gal(a1-3)GalNAc = molecular target: Gal(a1-3)GalNAc
# How it was run: as §1
# [3] = molecular target: Gal(a1-3)[Gal(a1-4)]Gal(b1-4)GlcNAc
# How it was run: as §1
# Gal(a1-4)Gal(b1-4)Glc = molecular target: Gal(a1-4)Gal(b1-4)Glc
# How it was run: as §1
# Gal(a1-4)Gal(b1-4)GlcNAc = molecular target: Gal(a1-4)Gal(b1-4)GlcNAc
# How it was run: as §1
# [4] = molecular target: Gal(a1-4)Gal(b1-4)GlcNAc(b1-3)Gal(b1-4)Glc
# How it was run: as §1
# Gal(a1-4)GlcNAc = molecular target: Gal(a1-4)GlcNAc
# How it was run: as §1
# Gal(a1-6)Glc = molecular target: Gal(a1-6)Glc
# How it was run: as §1
# Gal(b1-2)Gal = molecular target: Gal(b1-2)Gal
# How it was run: as §1
# Gal(b1-3)Gal = molecular target: Gal(b1-3)Gal
# How it was run: as §1
# Gal(b1-3)Gal(b1-4)GlcNAc = molecular target: Gal(b1-3)Gal(b1-4)GlcNAc
# How it was run: as §1
# [5] = molecular target: Gal(b1-3)Gal(b1-4)GlcNAc(b1-2)Man(a1-3)[Gal(b1-3)Gal(b1-4)GlcNAc(b1-2)Man(a1-6)]Man(b1-4)GlcNAc(b1-4)GlcNAc
# How it was run: as §1
# Gal(b1-3)GalNAc = molecular target: Gal(b1-3)GalNAc
# How it was run: as §1
# [6] = molecular target: Gal(b1-3)GalNAc(a1-3)[Fuc(a1-2)]Gal(b1-4)Glc
# How it was run: as §1
# [7] = molecular target: Gal(b1-3)GalNAc(a1-3)[Fuc(a1-2)]Gal(b1-4)GlcNAc
# How it was run: as §1
# [8] = molecular target: Gal(b1-3)GalNAc(b1-3)Gal(a1-4)Gal(b1-4)Glc
# How it was run: as §1
# [9] = molecular target: Gal(b1-3)GalNAc(b1-4)Gal(b1-4)Glc
# How it was run: as §1
# [10] = molecular target: Gal(b1-3)GalNAc(b1-4)[Neu5Ac(a2-3)]Gal(b1-4)Glc
# How it was run: as §1
# Gal(b1-3)GlcNAc = molecular target: Gal(b1-3)GlcNAc
# How it was run: as §1
# [11] = molecular target: Gal(b1-3)GlcNAc(b1-2)Man(a1-3)[Gal(b1-3)GlcNAc(b1-2)Man(a1-6)]Man(b1-4)GlcNAc(b1-4)GlcNAc
# How it was run: as §1
# [12] = molecular target: Gal(b1-3)GlcNAc(b1-2)Man(a1-3)[Gal(b1-3)GlcNAc(b1-2)Man(a1-6)]Man(b1-4)GlcNAc(b1-4)[Fuc(a1-6)]GlcNAc
# How it was run: as §1
# [13] = molecular target: Gal(b1-3)GlcNAc(b1-3)Gal(b1-3)GlcNAc
# How it was run: as §1
# [14] = molecular target: Gal(b1-3)GlcNAc(b1-3)Gal(b1-4)Glc
# How it was run: as §1
# [15] = molecular target: Gal(b1-3)GlcNAc(b1-3)Gal(b1-4)GlcNAc
# How it was run: as §1
# [16] = molecular target: Gal(b1-3)[Fuc(a1-4)]GlcNAc
# How it was run: as §1
# [17] = molecular target: Gal(b1-3)[Fuc(a1-4)]GlcNAc(b1-2)Man(a1-3)[Gal(b1-3)[Fuc(a1-4)]GlcNAc(b1-2)Man(a1-6)]Man(b1-4)GlcNAc(b1-4)GlcNAc
# How it was run: as §1
# [18] = molecular target: Gal(b1-3)[Fuc(a1-4)]GlcNAc(b1-2)Man(a1-3)[Gal(b1-3)[Fuc(a1-4)]GlcNAc(b1-2)Man(a1-6)]Man(b1-4)GlcNAc(b1-4)[Fuc(a1-6)]GlcNAc
# How it was run: as §1
# [19] = molecular target: Gal(b1-3)[Fuc(a1-4)]GlcNAc(b1-3)Gal(b1-3)[Fuc(a1-4)]GlcNAc
# How it was run: as §1
# [20] = molecular target: Gal(b1-3)[Fuc(a1-4)]GlcNAc(b1-3)Gal(b1-4)GlcNAc
# How it was run: as §1
# [21] = molecular target: Gal(b1-3)[Fuc(a1-4)]GlcNAc(b1-3)Gal(b1-4)[Fuc(a1-3)]GlcNAc
# How it was run: as §1
# [22] = molecular target: Gal(b1-3)[GlcNAc(b1-6)]GalNAc
# How it was run: as §1
# [23] = molecular target: Gal(b1-3)[Neu5Ac(a2-6)]GalNAc
# How it was run: as §1
# [24] = molecular target: Gal(b1-3)[Neu5Ac(a2-6)]GlcNAc(b1-6)Gal(b1-4)Glc
# How it was run: as §1
# [25] = molecular target: Gal(b1-3)[Neu5Ac(b2-6)]GalNAc
# How it was run: as §1
# [26] = molecular target: Gal(b1-4)GalNAc(a1-3)[Fuc(a1-2)]Gal(b1-4)GlcNAc
# How it was run: as §1
# [27] = molecular target: Gal(b1-4)GalNAc(b1-3)[Fuc(a1-2)]Gal(b1-4)GlcNAc
# How it was run: as §1
# Gal(b1-4)Glc = molecular target: Gal(b1-4)Glc
# How it was run: as §1
# Gal(b1-4)Glc6S = molecular target: Gal(b1-4)Glc6S
# How it was run: as §1
# Gal(b1-4)GlcNAc = molecular target: Gal(b1-4)GlcNAc
# How it was run: as §1
# [28] = molecular target: Gal(b1-4)GlcNAc(a1-6)Gal(b1-4)GlcNAc
# How it was run: as §1
# [29] = molecular target: Gal(b1-4)GlcNAc(b1-2)Man(a1-3)Man(b1-4)GlcNAc(b1-4)GlcNAc
# How it was run: as §1
# [30] = molecular target: Gal(b1-4)GlcNAc(b1-2)Man(a1-3)[Gal(b1-4)GlcNAc(b1-2)Man(a1-6)]Man(b1-4)GlcNAc(b1-4)GlcNAc
# How it was run: as §1
# [31] = molecular target: Gal(b1-4)GlcNAc(b1-2)Man(a1-3)[Gal(b1-4)GlcNAc(b1-2)Man(a1-6)]Man(b1-4)GlcNAc(b1-4)[Fuc(a1-6)]GlcNAc
# How it was run: as §1
# [32] = molecular target: Gal(b1-4)GlcNAc(b1-2)Man(a1-3)[Man(a1-6)]Man(b1-4)GlcNAc(b1-4)GlcNAc
# How it was run: as §1
# [33] = molecular target: Gal(b1-4)GlcNAc(b1-2)Man(a1-6)Man(b1-4)GlcNAc(b1-4)GlcNAc
# How it was run: as §1
# [34] = molecular target: Gal(b1-4)GlcNAc(b1-2)Man(a1-6)[Man(a1-3)]Man(b1-4)GlcNAc(b1-4)GlcNAc
# How it was run: as §1
# [35] = molecular target: Gal(b1-4)GlcNAc(b1-2)[Gal(b1-4)GlcNAc(b1-4)]Man(a1-3)[Gal(b1-4)GlcNAc(b1-2)Man(a1-6)]Man(b1-4)GlcNAc(b1-4)GlcNAc
# How it was run: as §1
# [36] = molecular target: Gal(b1-4)GlcNAc(b1-3)Gal(b1-3)GlcNAc
# How it was run: as §1
# [37] = molecular target: Gal(b1-4)GlcNAc(b1-3)Gal(b1-4)Glc
# How it was run: as §1
# [38] = molecular target: Gal(b1-4)GlcNAc(b1-3)Gal(b1-4)GlcNAc
# How it was run: as §1
# [39] = molecular target: Gal(b1-4)GlcNAc(b1-3)Gal(b1-4)GlcNAc(b1-3)Gal(b1-4)GlcNAc
# How it was run: as §1
# [40] = molecular target: Gal(b1-4)GlcNAc(b1-3)Gal(b1-4)[Fuc(a1-3)]GlcNAc(b1-3)Gal(b1-4)[Fuc(a1-3)]GlcNAc
# How it was run: as §1
# [41] = molecular target: Gal(b1-4)GlcNAc(b1-3)GalNAc
# How it was run: as §1
# [42] = molecular target: Gal(b1-4)GlcNAc(b1-3)[Gal(b1-4)GlcNAc(b1-6)]Gal(b1-4)GlcNAc
# How it was run: as §1
# [43] = molecular target: Gal(b1-4)GlcNAc(b1-3)[GlcNAc(b1-6)]Gal(b1-4)GlcNAc
# How it was run: as §1
binder,measurement,setting,value
"CCL2 (Coprinopsis cinerea), B3GA02 (protein) MDSPAVTLSAGNYIIYNRVLSPRGEKLALTYPGRQRTPVTVSPLDGSSEQAWILRSYDSNSNTWTISPVGSPNSQIGWGAGNVPVVLPPNNYVWTLTLTSGGYNIQDGKRTVSWSLNNATAGEEVSIGADATFSGRWVIEKV",glycan array binding signal (z-score),Gal(a1-3)Gal,-0.301
same,glycan array binding signal (z-score),Gal(a1-3)Gal(b1-3)GlcNAc,-0.293
same,glycan array binding signal (z-score),Gal(a1-3)Gal(b1-4)Glc,-0.298
same,glycan array binding signal (z-score),Gal(a1-3)Gal(b1-4)GlcNAc,-0.284
same,glycan array binding signal (z-score),[1],1.05
same,glycan array binding signal (z-score),[2],4.37
same,glycan array binding signal (z-score),Gal(a1-3)GalNAc,-0.251
same,glycan array binding signal (z-score),[3],-0.267
same,glycan array binding signal (z-score),Gal(a1-4)Gal(b1-4)Glc,-0.289
same,glycan array binding signal (z-score),Gal(a1-4)Gal(b1-4)GlcNAc,-0.283
same,glycan array binding signal (z-score),[4],-0.271
same,glycan array binding signal (z-score),Gal(a1-4)GlcNAc,-0.227
same,glycan array binding signal (z-score),Gal(a1-6)Glc,-0.275
same,glycan array binding signal (z-score),Gal(b1-2)Gal,-0.291
same,glycan array binding signal (z-score),Gal(b1-3)Gal,-0.291
same,glycan array binding signal (z-score),Gal(b1-3)Gal(b1-4)GlcNAc,-0.29
same,glycan array binding signal (z-score),[5],-0.278
same,glycan array binding signal (z-score),Gal(b1-3)GalNAc,-0.286
same,glycan array binding signal (z-score),[6],-0.263
same,glycan array binding signal (z-score),[7],-0.26
same,glycan array binding signal (z-score),[8],-0.285
same,glycan array binding signal (z-score),[9],-0.293
same,glycan array binding signal (z-score),[10],-0.297
same,glycan array binding signal (z-score),Gal(b1-3)GlcNAc,-0.289
same,glycan array binding signal (z-score),[11],-0.247
same,glycan array binding signal (z-score),[12],-0.283
same,glycan array binding signal (z-score),[13],-0.283
same,glycan array binding signal (z-score),[14],-0.281
same,glycan array binding signal (z-score),[15],-0.29
same,glycan array binding signal (z-score),[16],-0.291
same,glycan array binding signal (z-score),[17],0.115
same,glycan array binding signal (z-score),[18],-0.19
same,glycan array binding signal (z-score),[19],-0.264
same,glycan array binding signal (z-score),[20],2.83
same,glycan array binding signal (z-score),[21],-0.246
same,glycan array binding signal (z-score),[22],-0.278
same,glycan array binding signal (z-score),[23],-0.22
same,glycan array binding signal (z-score),[24],-0.285
same,glycan array binding signal (z-score),[25],-0.285
same,glycan array binding signal (z-score),[26],-0.275
same,glycan array binding signal (z-score),[27],-0.264
same,glycan array binding signal (z-score),Gal(b1-4)Glc,-0.292
same,glycan array binding signal (z-score),Gal(b1-4)Glc6S,-0.289
same,glycan array binding signal (z-score),Gal(b1-4)GlcNAc,-0.289
same,glycan array binding signal (z-score),[28],-0.266
same,glycan array binding signal (z-score),[29],-0.27
same,glycan array binding signal (z-score),[30],-0.231
same,glycan array binding signal (z-score),[31],-0.271
same,glycan array binding signal (z-score),[32],-0.289
same,glycan array binding signal (z-score),[33],-0.278
same,glycan array binding signal (z-score),[34],-0.293
same,glycan array binding signal (z-score),[35],-0.268
same,glycan array binding signal (z-score),[36],-0.267
same,glycan array binding signal (z-score),[37],-0.286
same,glycan array binding signal (z-score),[38],-0.294
same,glycan array binding signal (z-score),[39],-0.286
same,glycan array binding signal (z-score),[40],3.98
same,glycan array binding signal (z-score),[41],-0.287
same,glycan array binding signal (z-score),[42],-0.262
same,glycan array binding signal (z-score),[43],-0.293
